{"source": "patent EP4628104A1", "about": "“ANTI-CLDN18.2 ANTIBODY-DRUG CONJUGATE, AND PHARMACEUTICAL COMPOSITION THEREOF AND USE THEREOF” (priority 2022, dated 2024)", "key": {"[1]": {"test_system": "U2OS-Luciferase", "assay": "Bystander effect in mixed culture of positive and negative cells", "format": "cell-based, Human", "conditions": "viability of U2OS-Luciferase negative cells co-cultured with CLDN18.2-overexpressing BxPC-3, 120 h, up to 33.3 nM; ADCs of Example 5", "description": "CLDN18.2-overexpressing BxPC-3 was selected as positive cells and U2OS stably expressing luciferase (U2OS-Luciferase) was selected as negative cells. These cells were mixed and cultured to detect the bystander effect of the anti-CLDN18.2 antibody-drug conjugates prepared in Example 5.\nPositive cells and negative cells in the logarithmic growth phase were taken, both adjusted to a density of 4 × 10^4 cells/mL, and added to a 96-well plate at 50 µL/well. The anti-CLDN18.2 antibody-drug conjugate was subjected to gradient dilution with the McCoy's 5A complete medium (GIBCO, Cat. No. 16600-082) containing 10% FBS and added to the 96-well plate at 50 µL/well. The initial concentration of the anti-CLDN18.2 antibody-drug conjugate is 33.3 nM, with a 5-fold gradient dilution for a total of 8 concentrations. The 96-well plate was incubated in an incubator at 37 °C with 5% CO2 for 120 h. […] The chemiluminescence value was determined using a microplate reader, and the viability of U2OS-Luciferase cells was calculated. Viability(%) = (Luminescence value of the experimental group)/(Luminescence value of the control group) × 100% [formula]\nData were analyzed using GraphPad Prism 5."}, "[2]": {"test_system": "NUGC-4 human gastric cancer cells", "assay": "Pharmacodynamic evaluation in mouse xenograft tumor model of NUGC-4 human gastric cancer", "format": "in vivo, CB-17 SCID mice", "conditions": "NUGC-4 xenograft", "description": "NUGC-4 human gastric cancer cells were subcutaneously inoculated in the right axilla of SPF-grade female CB-17 SCID mice (source: Shanghai Lingchang Biotech Co., Ltd.) at 5 × 10^6/mouse. When the mean tumor volume reached about 150 mm^3, the animals were divided into 3 groups of 6 animals each, with the specific groups and doses shown in Table 7. Both hz28G3-1.3-DDDXd and 15F9-DDDXd were prepared in Example 3. After the determination of the DAR value according to Example 4, the DAR value of hz28G3-1.3-DDDXd was 7.4, and the DAR value of 15F9-DDDXd was 7.7. Table 7. Groups and doses\nThe day of grouping was day 0, and the tail vein administration was performed once on day 2 after grouping. The tumor volume was measured 2-3 times a week, and meanwhile, the mice were weighed and the data were recorded. The general behavior of the mice was observed and recorded every day. After the experiment was completed, the tumors were removed, weighed, and photographed.\nThe detection indexes and the calculation formulas are as follows: • Tumor volume TV (mm^3) = 1/2 × (a × b^2), where a represents the long diameter of the tumor, and b represents the short diameter of the tumor; • Relative tumor volume RTV = TVt/TV0, where TV0 represents the tumor volume on day 0, and TVt represents the tumor volume at each measurement; • Relative tumor proliferation rate T/C (%) = (TRTV/CRTV) × 100%, where TRTV represents RTV of the treatment group, and CRTV represents RTV of the vehicle control group; • Tumor growth inhibition rate TGI (%) = (1 - TW/TW0) × 100%; where TW represents the tumor weight of the treatment group, and TW0 represents the tumor weight of the vehicle control group; • Weight change rate WCR (%) = (Wtt - Wt0)/Wt0 × 100%, where Wt0 represents the body weight of the mouse on day 0, and Wtt represents the body weight of the mouse at each measurement."}, "[3]": {"conditions": "10 mg/kg tail vein once on day 2, day 33"}}}
{"molecule": "hz28G3-1.3-DDDXd: anti-CLDN18.2 antibody hz28G3-1.3 conjugated with compound H (MC-GGFG-DDDXd); DAR 7.4 (Example 3), 7.6 (Example 5), 7.93 (Example 16) (conjugate) heavy: QVQLVQSGAEVKKPGASVKVSCKTSGYSFTDYLMLWVRQAHGQSLEWMGNINPYYGRTTYALKFKGRVTMTVDRSTSTVYMELSSLRSEDTAVYYCARDGYSLRNAMDYWGQGTLVTVSS[human IgG1 constant region left out here] light: DIVMTQSPDSLAVSLGERATINCKSSQSLFNSGNQKNYLAWYQQKPGQPPKLLIYGASTRESGVPDRFSGSGSGTDFTLTISSLQAEDVAVYYCQNAHSYPYTFGQGTKVEIKRTVAAPSVFIFPPSDEQLKSGTASVVCLLNNFYPREAKVQWKVDNALQSGNSQESVTEQDSKDSTYSLSSTLTLSKADYEKHKVYACEVTHQGLSSPVTKSFNRGEC", "values": [{"measurement": "bystander effect", "setting": "[1]", "value": "significant bystander effect"}, {"measurement": "toxicity", "setting": "[2]; 10 mg/kg", "value": "no significant toxicity"}, {"measurement": "RTV (mean±SD)", "setting": "[2]; [3]", "value": "1.5±0.6"}, {"measurement": "TV (mean±SD)", "setting": "[2]; [3]", "value": "260±131", "unit": "mm^3"}, {"measurement": "Weight change rate (mean ± SD)", "setting": "[2]; [3]", "value": "11.1±2.7", "unit": "%"}, {"measurement": "TGI", "setting": "[2]; 10 mg/kg tail vein once on day 2, day 33, from tumor weight", "value": 86.7, "unit": "%"}, {"measurement": "T/C", "setting": "[2]; 10 mg/kg tail vein once on day 2, day 33, relative tumor proliferation rate", "value": 14.7, "unit": "%"}]}
